In the supplement of paper PMC11417369:
This is one part of the list.

test system: PfAP2-HC AP2 domain (GST-tagged); assay: gcPBM binding intensity (ln(normalized median fluorescence intensity)); higher = stronger DNA binding
Summary of the method: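 The binding buffer was 1× PBS containing 1% milk, 0.2 mg/ml BSA, 0.5% salmon testes DNA and 0.03% Triton X-100. In it, GST-tagged P. falciparum DNA-binding domains expressed in E. coli were applied for 1 h to an Agilent 4 × 180k array of primer-extended double-stranded 36-bp intergenic genomic probes plus negative controls. Binding intensity, read with Alexa488 anti-GST antibody and a 488 nm scan, is the highest Masliner-normalised natural-log median intensity across replicate spots of either probe orientation.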

Sequence	gcPBM binding intensity (ln)
TATATGAAATATTATGCACACAATATATAATATGAT [CACACA_site936]	9.84
ATTAATTCGTTTTGTACACACATAATGAATAATTTA [CACACA_site2235]	9.75
TCATTTTAATTAAAAGTGCAAAAAATAATATAACTA [GTGCAC_site9968]	9.56
ATATATATATATATATGTACATATATATTGTTGATC [XGTACX_site8893]	9.77
ACATATTATTCAAGTGCACACTTTATATTTATGATT [CACACA_site3295]	9.82
ATTTAATTCGTACATACACACGCACATATATATATA [CACACA_site8415]	10.1
GAATTTCGATATATGTGTACGCATTTGTATTATAGG [XGTACX_site6332]	9.68
TACATATTGCACAAATAAAAAAGAACAAAAAAAAAA [CACACA_negctrl_site1200]	9.53
ATATATATATATATATGTACATATATTCGATTATTA [XGTACX_site557]	9.65
ATAATATTTCTTACCTTTGGATGTTCTAATTTTTTT [CACACA_negctrl_site1317]	9.73
TACTTTATATTATATATATATATATATATATATATA [CACACA_negctrl_site1765]	9.57
AAAAATAACATATAAACACACATATATATATATATA [CACACA_site3802]	10.1
TATATAAAATAATAATGTACTCATTAAAATTATAGA [XGTACX_site4507]	9.48
AAAGAAAAAAAAAAAAAAAAAAAAAAAATTATACAT [CACACA_negctrl_site7]	9.39
ATGTATCCAATAGGAGTGCATAATTCTATTAACACC	9.66
AAACGAACATATAAATGTACATATATATACATATAT [XGTACX_site8086]	9.79
AATTAAATATTATAAACACACATATATATTATTTTT [CACACA_site865]	9.71
TATGTATTAAATTTTACACACATGATTCTCTATATA [CACACA_site2298]	9.96
ATTGTAAATATAGAAGTGCAAAAGGGTATGAAATGA	9.86
TACAAAAAAAATGTATTTAGGACATATATATGTTTA [XGTACX_negctrl_site455]	9.45
TACATAAAATATATCACACATATAATATATATATAT [CACACA_site5834]	9.68
AAAAAAAAAAAAAAATATAAATATATATATATATAT [GTGCAC_negctrl_site28]	9.3
AGTGTAATTTTCCACTGTACTTTTCTTGTATATAAT [XGTACX_site4201]	9.67

Sequence	gcPBM binding intensity (ln)
AAAGTAACACACTAATATTTTAACAAATAATATATA [GTGCAC_negctrl_site132]	9.85
ATATATATTAATATTTGTACATAAAATTATTTCAAT [XGTACX_site5364]	9.46
AATACATTTATGAGCTGTACACATTTATTTGAGCTA [XGTACX_site7695]	9.59
TTATATCATTTTCCTGCACACATAAATTTATATAAT [CACACA_site8257]	9.94
ACAAAATATACAAAATGTACAAAATATACAAAATGT [XGTACX_site6467]	9.76
CATATGTATTTATTCACACATATATATATATATATA [CACACA_site4207]	9.68
TTATTCTAAAAGTGTTTGCACTTTTATAATCATATA [GTGCAC_site9929]	9.53
TATACAGATAAATACACACACACATATATATATATA [CACACA_site4845]	11.2
AATAATAATTTGAATACACACAATAATATATATATA [CACACA_site2059]	9.84
ATACAAAAAATCACATGTACATATTCTTAAATGGTA [XGTACX_site8502]	9.65
CACAAATATACAAATACACACAAATATACTCATATA [CACACA_site5339]	10
TGTATTCCTTTTTATAGTACAATTTAAAAGTATAAA [XGTACX_site2045]	9.32
GTACGTTTCTCCAGACTGCACTATACGACTCGTACA [GTGCAC_site9771]	9.6
AGAAAGATGCAAGAAACATGCAAAAAAAAAATTTCT [TGCATGCA_site725]	9.48
AGCCACGGGTTATATACACACATAATCAAATAAAAT [CACACA_site6117]	10.1
TATGTAATAAAATATACACACAATATACTTATATAT [CACACA_site3682]	9.78
ATTTTTAATGGATAAGTGCATAATATTATGATGCAA	9.74
AAAAAATTATATAATAATAGAACTATACATTTTATT [GTGCAC_negctrl_site645]	9.55
ACATAATATATATATTGTACAAATATATTATTGTTA [XGTACX_site3385]	9.55
AGCTATATAAATAATACATGCATTGTTCAGGTATTT [TGCATGCA_site964]	9.65
ATTTATAATATTCAAGTGCATATATATTTTTTACTT	9.71
TAAAGAAATTCTTCATGTACTTATTATTTCTCTTTT [XGTACX_site6817]	9.59
